Over roughly 18,000 sequences, “TetR repression strength (sort-seq, GFP reporter)” has its median near 0.23; the highest 2% begin near 0.68. Some of the results follow.

The target of this experiment is TetR (class B, Tn10) (UniProt P04483). The experiment is described as follows: TetR repression strength (sort-seq, GFP reporter) (relative to tetO2 = 1); higher = stronger repression. The conditions noted are these: E. coli. The method, boiled down: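 Three independent transformations of E. coli SIG10-MAX were made with a low-copy plasmid library randomizing eight operator positions between a constitutive promoter and sfGFP, with constitutive TetR. Following 5 h at 37 °C in LB plus 50 µg/mL chloramphenicol, 10^6 cells went through FACS into 13 fluorescence bins, and each bin was sequenced by Illumina. Repression strength was defined as the top bin index plus one minus the read-weighted mean bin, divided by the unaltered operator's value. Averages included only members reaching ≥30 reads in all replicates with a CV ≤0.5.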
Chain of UniProt P04483 (P04483 whole entry): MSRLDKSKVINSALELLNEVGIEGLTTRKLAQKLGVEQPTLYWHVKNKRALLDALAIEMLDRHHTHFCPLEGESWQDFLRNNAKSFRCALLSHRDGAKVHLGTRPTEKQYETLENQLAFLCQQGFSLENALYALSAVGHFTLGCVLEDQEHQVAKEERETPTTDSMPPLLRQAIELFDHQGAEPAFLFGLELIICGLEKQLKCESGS
TCCCGTCAAGTAAGAGAGA came in with a TetR repression strength of 0.218.
As to TCCCCTGTAGTGGCGGAGA, the TetR repression strength was found to be 0.139.
As for TCCCGTCGAGTTCGGGAGA, the figure is 0.199; as for TCCCTCAAAGTAGAGGAGA, 0.159; as for TCCCTCCGAGTTGGAGAGA, 0.404.
In turn, TCCCCACAAGTAGGGGAGA had a TetR repression strength of 0.172.
As for TCCCTGTCAGTCTTTGAGA, the figure is 0.289; as for TCCCAGCTAGTTTTAGAGA, 0.287; as for TCCCGGCTAGTATCCGAGA, 0.244.
Under TCCCACTGAGTTGCAGAGA stands 0.364; under TCCCTTTAAGTGGCTGAGA, 0.498; under TCCCTGCTAGTGAACGAGA, 0.155.
As for TCCCTCCTAGTGTGTGAGA, the figure is 0.25; as for TCCCGATCAGTGCCTGAGA, 0.225; as for TCCCACGTAGTCCTAGAGA, 0.313.
TCCCAACCAGTAATGGAGA yielded a TetR repression strength of 0.713.
Regarding TCCCTTTAAGTCACGGAGA, the TetR repression strength was determined as 0.22.
As for TCCCGTAGAGTAGCGGAGA, the TetR repression strength worked out at 0.0731.
Regarding TCCCCCGGAGTGTTTGAGA, the TetR repression strength was determined as 0.42.
Under TCCCGGCGAGTCGTTGAGA stands 0.801.
In the case of TCCCCCTAAGTTAATGAGA, the TetR repression strength turned out to be 0.377.
TCCCTGGAAGTAGTCGAGA came in with a TetR repression strength of 0.115.
Take TCCCATGGAGTGAACGAGA: the TetR repression strength is 0.285.
With TCCCACTGAGTTATGGAGA, the TetR repression strength was 0.151.
Under TCCCTAATAGTGGGGGAGA stands 0.221; under TCCCATGCAGTTCAGGAGA, 0.264.
Under TCCCGTGTAGTTTGTGAGA stands 0.298.
For TCCCTAAAAGTGAGCGAGA, the TetR repression strength stood at 0.32.
TCCCGGTTAGTAGTGGAGA showed a TetR repression strength of 0.37.
The sequence TCCCCGGTAGTTCAGGAGA showed a TetR repression strength of 0.251.
Under TCCCGTCCAGTATGGGAGA stands 0.176.
As to TCCCGATAAGTAGCTGAGA, the TetR repression strength was determined as 0.921.
TCCCTTGAAGTCTCCGAGA: the TetR repression strength worked out at 0.276.
As for TCCCGACCAGTACGAGAGA, the TetR repression strength was 0.0115.
As for TCCCAAAGAGTACGGGAGA, the TetR repression strength came out at 0.092.
As for TCCCGTGGAGTTCATGAGA, the figure is 0.16; as for TCCCCCTGAGTGCCTGAGA, 0.245; as for TCCCTCTCAGTTGGGGAGA, 0.203.
TCCCTACAAGTGGATGAGA had a TetR repression strength of 0.221.
Turning to TCCCCCGGAGTGAGAGAGA, the TetR repression strength came to 0.295.
On to TCCCAAGCAGTGGGCGAGA, for which the TetR repression strength was found to be 0.314.
As for TCCCTGAGAGTGGATGAGA, the TetR repression strength stood at 0.0518.
The sequence TCCCGACTAGTTAGCGAGA yielded a TetR repression strength of 0.682.
As for TCCCAAAAAGTTGGTGAGA, the TetR repression strength was found to be 0.318.
Under TCCCTTTGAGTGATTGAGA stands 0.263.
Under TCCCCCTGAGTGCGTGAGA stands 0.236; under TCCCGCAGAGTCAGAGAGA, 0.218.
TCCCTGGTAGTTCCAGAGA had a TetR repression strength of 0.111.
TCCCGTTGAGTCAGGGAGA: the TetR repression strength was 0.163.
TCCCATACAGTTTTAGAGA returned a TetR repression strength of 0.332.
For the sequence TCCCGTTAAGTCTGCGAGA, the TetR repression strength is 0.104.
In the case of TCCCAGTGAGTTGGTGAGA, the TetR repression strength came to 0.19.
Under TCCCATGTAGTGGCTGAGA stands 0.356; under TCCCGATCAGTGGAGGAGA, 0.0905.
Under TCCCTCCCAGTGCCTGAGA stands 0.317; under TCCCGGAGAGTGCGAGAGA, 0.402.

For the origin of these results see a collection of fitness landscapes (doi:10.1038/s41467-024-54723-y).
